Values of other authors as cited in article PMC11006913.
This is one part of the list.

Columns and labels:
Settings in all cases: PBM; conditions not shown; double strand, one strand shown; scale: upbm affinity estimate (log intensity, higher = more binding, comparable within an allelic series)
[1] = molecular target: HOXD13 I297V (Homo sapiens) (UniProt P35453)
[2] = molecular target: HOXD13 I322L (Homo sapiens) (UniProt P35453)
[3] = molecular target: HOXD13 N298S (Homo sapiens) (UniProt P35453)
[4] = molecular target: HOXD13 Q325K (Homo sapiens) (UniProt P35453)
[5] = molecular target: HOXD13 Q325R (Homo sapiens) (UniProt P35453)
[6] = molecular target: HOXD13 R306W (Homo sapiens) (UniProt P35453)
[7] = molecular target: HOXD13 S316C (Homo sapiens) (UniProt P35453)

Row | Sequence | binding signal [1] | binding signal [2] | binding signal [3] | binding signal [4] | binding signal [5] | binding signal [6] | binding signal [7]
1 | TTATTAAA [8-mer TTATTAAA] | 12.5 | 11.8 | 12.8 | 11.9 | 12.2 | 12 | 12.4
2 | CTTTATGA [8-mer CTTTATGA] | 12.2 | 11.1 | 12.5 | 10.8 | 11.5 | 11.4 | 12.1
3 | AGGACCGG [8-mer AGGACCGG] | 9.4 | 9.38 | 9.37 | 9.36 | 9.54 | 9.4 | 9.38
4 | CTAATAAA [8-mer CTAATAAA] | 12.9 | 11.6 | 13.1 | 11 | 12.7 | 12.3 | 12.9
5 | AGTGATAT [8-mer AGTGATAT] | 11 | 10.6 | 11.1 | 10.9 | 11.1 | 10.5 | 10.8
6 | GCGAGAGC [8-mer GCGAGAGC] | 9.63 | 9.54 | 9.51 | 9.38 | 9.47 | 9.43 | 9.58
7 | TTGTAAAA [8-mer TTGTAAAA] | 12.3 | 12.5 | 12.5 | 10.6 | 11.3 | 11.6 | 12.2
8 | ATTTATGG [8-mer ATTTATGG] | 12.6 | 11.4 | 12.8 | 10.8 | 11.3 | 11.8 | 12.5
9 | TGATGTAA [8-mer TGATGTAA] | 11.1 | 10.8 | 11.1 | 10.6 | 10.7 | 10.6 | 10.8
10 | CCCCACCG [8-mer CCCCACCG] | 9.75 | 9.43 | 9.64 | 9.82 | 9.62 | 9.64 | 9.63
11 | CGCGGGAG [8-mer CGCGGGAG] | 9.37 | 9.38 | 9.35 | 9.62 | 9.43 | 9.39 | 9.29
12 | CCGCGCCC [8-mer CCGCGCCC] | 9.35 | 9.3 | 9.36 | 9.27 | 9.44 | 9.37 | 9.39
13 | CATTAATG [8-mer CATTAATG] | 12.2 | 11.4 | 12.4 | 11.6 | 11.6 | 11.4 | 12
14 | CCAGCTGC [8-mer CCAGCTGC] | 9.56 | 9.46 | 9.52 | 9.54 | 9.46 | 9.43 | 9.58
15 | AGTTAACA [8-mer AGTTAACA] | 11.7 | 11.7 | 11.9 | 10.8 | 10.9 | 10.8 | 11.4
16 | AAGGTGGG [8-mer AAGGTGGG] | 9.56 | 9.52 | 9.56 | 9.32 | 9.51 | 9.44 | 9.55

Row | Sequence | binding signal [1] | binding signal [2] | binding signal [3] | binding signal [4] | binding signal [5] | binding signal [6] | binding signal [7]
17 | ATTACTAA [8-mer ATTACTAA] | 11.1 | 10.8 | 11.3 | 11 | 11.1 | 10.6 | 10.9
18 | GGCACGCC [8-mer GGCACGCC] | 9.11 | 9.23 | 9.05 | 9.19 | 9.24 | 9.24 | 9.19
19 | CGTGGGGC [8-mer CGTGGGGC] | 9.34 | 9.35 | 9.19 | 9.51 | 9.24 | 9.34 | 9.36
20 | CCAATAAA [8-mer CCAATAAA] | 13.1 | 11.7 | 13.3 | 10.8 | 11.8 | 12.4 | 13.1
21 | CTGCGGAC [8-mer CTGCGGAC] | 9.55 | 9.53 | 9.37 | 9.27 | 9.39 | 9.31 | 9.43
22 | GTTTATGA [8-mer GTTTATGA] | 12.4 | 11.2 | 12.6 | 10.8 | 11.5 | 11.6 | 12.3
23 | CATATAAA [8-mer CATATAAA] | 12.5 | 11.3 | 12.7 | 12.4 | 12.5 | 11.9 | 12.4
24 | CTGTAAAC [8-mer CTGTAAAC] | 12 | 12 | 12.2 | 10.5 | 10.6 | 11.1 | 11.8
25 | CCGACGCG [8-mer CCGACGCG] | 9.52 | 9.53 | 9.4 | 9.54 | 9.46 | 9.47 | 9.46
26 | AGTTTATA [8-mer AGTTTATA] | 12.2 | 11.4 | 12.4 | 12.4 | 12.2 | 11.7 | 12.2
27 | GCCCGGGC [8-mer GCCCGGGC] | 9.43 | 9.43 | 9.41 | 9.51 | 9.65 | 9.3 | 9.37
28 | GACCCTGC [8-mer GACCCTGC] | 9.33 | 9.29 | 9.29 | 9.71 | 9.53 | 9.37 | 9.49
29 | CCGAAGGC [8-mer CCGAAGGC] | 9.43 | 9.37 | 9.48 | 9.67 | 9.41 | 9.34 | 9.48
30 | ATATAAAA [8-mer ATATAAAA] | 12.4 | 11.2 | 12.6 | 12.4 | 12.5 | 12 | 12.2
31 | AGCGCTGC [8-mer AGCGCTGC] | 9.54 | 9.54 | 9.44 | 9.35 | 9.52 | 9.47 | 9.45
